Source: publication PMC12040169 (PLOS Biology, 2025)
The list shows a part of the results.

Test system: T1, C. trachomatis L2/434/Bu expressing GFP (CTL2-GFP)
T1 construct: L2/434/Bu GFP intracellular growth in HeLa cells
Design: species or system HeLa; C. trachomatis total inclusion area by high-content imaging, normalised to DMSO
Settings: total inclusion area; 28.5 h, 10 µM; inhibitor
Summary of the method: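 High-content imaging followed the bulk GFP/resorufin measurement: fixed, Hoechst-stained cells were scored for GFP inclusions and host nuclei per well. Total inclusion area and count served as growth proxies, nuclei number as the viability proxy. MIC calculation matched the bulk assay.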

Compound	% of control remaining
Cc1ccccc1Nc1nc(N)nc(CN2CCOC3CCCC32)n1 (stereo not shown) [CBK305181]	10.3873
O=[N+]([O-])c1ccc(CN2CCN(c3nccnc3Oc3ccc(F)cc3)CC2)cc1 [CBK083015T]	96.5814
COc1ccccc1NC(=O)CCSc1nc(C)cc(C)n1 [CBK266371]	93.7177
COc1ccc(S(=O)(=O)NCCN2CCOCC2)c(Cl)c1Cl [CBK269999]	84.7815
CN(C)c1ccc(-c2nnnn2[C@H]2CO[C@H]3[C@@H]2OC[C@H]3O)cc1 [CBK289481]	78.4791
CC(=O)N1CCC[C@@H]1C(=O)N1CC[C@@H]2NC(=O)[C@H](Cc3ccccc3)NC(=O)C3(C/C=C/C[C@@H]2C1)CCOCC3 [CBK292195]	84.4588
COc1ccc(CCNC(=O)NS(=O)(=O)c2ccc(C)cc2)cc1OC [CBK300510]	46.7579
FC(F)(F)c1cccc(OCCN2CCNCC2)n1 [CBK113291]	104.362
OC1(CCCN2CCOCC2)C2CCCC1CN(Cc1ccccc1)C2 (stereo not shown) [CBK025076C]	31.5966
COc1cccc(OCCCCCc2c(C)n[nH]c2C)c1 [CBK261805]	89.1559
O=C(c1ccccc1-c1ccccc1)N1CCn2cnnc2C1 [CBK283789]	110.515
COc1ccccc1CNCCNC(=O)OC(C)(C)C [CBK056694]	79.6311
CCC(C)c1ccc(NC(=S)NCCn2cc(Cl)cn2)cc1 (stereo not shown) [CBK267101]	85.5575
CCN1CCN(c2c(Cl)cccc2NC(=O)c2ccc(N3CCOCC3)c([N+](=O)[O-])c2)CC1 [CBK269066]	108.956
CCCC(=O)N[C@@H](C)Cn1c(C(F)(F)F)cc2cccnc21 [CBK283232]	70.64
C/C(Nc1ccc(S(=O)(=O)Nc2nccc(C)n2)cc1)=C1\C(=O)N(c2nc3ccccc3s2)N=C1C(F)(F)F [CBK263002]	24.472
CC[C@H]1CN(C(=O)NC(C)C)CC[C@H]1CC(=O)Nc1nccs1 [CBK288774]	93.2483
COc1ccc(C)cc1-n1ccc(C(=O)NC(C)(C)C(N)=O)n1 [CBK305789]	37.8308
CCCC(=O)c1ccc(S(=O)(=O)N2CCCN(Cc3ccc(F)cc3Cl)CC2)cc1 [CBK062917]	55.8095
Clc1ccc(-c2csc3ncnc(SCc4ccco4)c23)cc1 [CBK265972]	81.934
Oc1ccc2cc(-c3cccc(C(F)(F)F)c3)cnc2n1 [CBK081285]	25.8188
COc1cccc(Nc2c(C(=O)N3CCCCC3)cnc3nc(C)ccc23)c1 [CBK287817]	114.644
CCOC(=O)c1csc(C2CCCN2C(=O)c2ccoc2C)n1 (stereo not shown) [CBK304080]	68.7957
Clc1cccc(-c2cncc(NCc3ccc4c(c3)OCO4)n2)c1 [CBK065323]	64.2379
O=C(NCCN1CCOCC1)C1CC2CCC1C2 (stereo not shown) [CBK026764]	106.579
CCCC/C=C/c1cn2ccnc2c(NCCc2ccccn2)n1 [CBK066275]	100.308
COc1ccccc1C1(O)CC2CCC(C1)N2 (stereo not shown) [CBK281369]	98.7222

Compound	% of control remaining
CCn1c2ccccc2n2c(SCCC(=O)O)nnc12 [CBK267135]	127.754
CCCc1[nH]n(CCc2ccccc2)c(=O)c1Cc1c(Cl)cccc1Cl [CBK112499]	85.1872
C=CCn1cc(CN2CCc3nc(C)[nH]c(=O)c3C2)c2ccccc21 [CBK282376]	99.3148
CN1CCN(CCP(=O)(c2ccccc2)c2ccccc2)CC1 [CBK020260]	100.165
CCN(CC)CCCN1C(=O)CSC1c1ccc2c(c1)OCO2 (stereo not shown) [CBK263482C]	61.1957
CCn1cc(C(=O)N2CCCC2c2nccs2)c(=O)c2ccc(C)nc21 (stereo not shown) [CBK307171]	69.9678
FC(F)(F)c1ccc(-c2c[nH]c([C@@H]3COCCN3Cc3csnn3)n2)cc1 [CBK289318]	107.069
O=P(O)(CCc1ccncc1)CN1CCOCC1 [CBK262317]	110.958
Cc1ccc(S(=O)(=O)CC(CN2CCOCC2)N2CCOCC2)cc1 (stereo not shown) [CBK264590]	104.161
N#C/C(=C\c1ccc(O)cc1)c1nc(-c2ccc3c(c2)OCO3)cs1 [CBK262370]	38.6691
O=C(NCCc1ccsc1)N1CCN(c2ccncc2)CC1 [CBK305595]	41.5462
COc1ccccc1C(NC(=O)C1CCN(C(=O)c2cccc(Cl)c2)CC1)c1ccccn1 (stereo not shown) [CBK059637]	142.766
C=CCSc1nnc(CSc2nc3sc4c(c3c(=O)[nH]2)CCCC4)n1-c1ccccc1 [CBK263341]	118.735
O=C(O)c1cc(-c2ccc(OC(F)F)cc2)[nH]n1 [CBK288022]	65.6544
COc1ccc(-c2ccc3c(c2)C(=O)N2CCN(C(=O)CC(C)(C)C)C[C@@H]2C(=O)N3)cc1 [CBK289584]	109.872
CS(=O)(=O)N[C@H]1CO[C@H]2[C@@H]1OC[C@H]2OC(=O)Nc1cccc2ccccc12 [CBK289469]	95.3927
COc1cc2c(cc1OC)/C(=C(\C(=O)Nc1ccccc1)C(=O)N1CCCCC1)NC(C)(C)C2 [CBK087103]	107.685
O=C(O)CCN1CCN(S(=O)(=O)c2cccc([N+](=O)[O-])c2)CC1 [CBK268819]	104.501
CCOC(=O)c1nnc(-c2cccs2)nc1NC1CCCCC1 [CBK018110]	84.7842
Cn1c(=O)oc2ccc(C(=O)CSc3nnnn3-c3ccccc3)cc21 [CBK300488]	83.7866
Cc1ccc(CSCCNS(=O)(=O)c2ccc([N+](=O)[O-])cc2)cc1 [CBK268496]	93.7134
COc1nccnc1N1CCN(Cc2ccc([N+](=O)[O-])cc2)CC1 [CBK084217]	70.3938
c1cncc(CN2CCC[C@@H]2CN2CCCC2)c1 [CBK149101C]	92.1924
CCc1nnc(NC(=O)CSc2nc3c([nH]2)c(=O)n(C)c(=O)n3C)s1 [CBK025840]	56.1551
CN1CCC(NC(=O)c2cccc(OCC(=O)N3CCCCC3)c2)C1=O (stereo not shown) [CBK307281]	58.9724
CC(=O)OCc1c(C)cc(C)c(CN(C)C(C)c2ccncn2)c1C (stereo not shown) [CBK307315]	72.874
CC(C)NC(=O)NC[C@H]1C[C@@H]2CCN1C[C@@H]2c1cc(-c2cccs2)nn1C [CBK289103]	94.1495

Compound	% of control remaining
COc1ccccc1-c1cn2ccnc2c(N2CCCC2CO)n1 (stereo not shown) [CBK037266]	112.263
O=C1CC(N2CCN(Cc3ccc4c(c3)OCO4)CC2)C(=O)N1c1ccc(Cl)c(Cl)c1 (stereo not shown) [CBK074549]	84.2093
COc1ccc(C(=O)[C@H]2CCCN(C(=O)c3ccco3)C2)cc1 [CBK284327]	80.6239
O=[N+]([O-])c1cc(S(=O)(=O)Nc2cccc3ccccc23)ccc1N1CCNCC1 [CBK015584C]	83.5844
CC(C)Nc1nc2ccccc2nc1OC1CCN(C)C1 (stereo not shown) [CBK113283]	96.5212
C/C(=N\O)c1oc2ccccc2c(=O)c1O [CBK010642]	67.4444
CCOC(=O)C(NC(=O)CC)(Nc1cc(C)on1)C(F)(F)F (stereo not shown) [CBK025721]	71.4044
COc1cc(OC)c(NC(=O)CN(C)S(=O)(=O)c2cc(Cl)ccc2Cl)cc1Cl [CBK267399]	107.385
COc1cc(NC(=S)N2CCN(c3cc(Cl)ccc3C)CC2)cc(OC)c1 [CBK266252]	89.3089
O=C(Nc1ccc(-c2nc(-c3ccccc3)c3cc(NC(=O)c4cccs4)ccc3n2)cc1)c1cccs1 [CBK261547]	121.949
N=C1NC(=O)/C(=C\c2cccc(C(=O)O)c2)S1 [CBK264832]	108.253
COc1cccc(NC(=O)CCN2C(=O)c3ccccc3S2(=O)=O)c1 [CBK266003]	75.8755
COc1ccc(-n2c(C)c(C#N)c3cc(Br)c(O)c(Br)c32)cc1 [CBK101113]	87.3716
O=C(NC(Cc1ccsc1)c1cccnc1)C1CCOC1 (stereo not shown) [CBK285116]	95.598
O=C(NCc1ccc(-c2csnn2)cc1)c1cccnc1 [CBK149309]	107.381
CC(C(=O)O)c1cc(C(=O)c2ccccc2)sc1-c1ccccc1 (stereo not shown) [CBK260968]	100.776
Cc1cc(C)n(C(C)CC(=O)NC(C)c2nc3ccccc3s2)n1 (stereo not shown) [CBK281469]	95.5045
CC(=O)Nc1cccc(-n2nnnc2SCc2noc(C)n2)c1 [CBK304599]	54.7786
NNC(=O)C(Oc1ccccc1)Oc1ccccc1 [CBK261210]	93.5528
COc1ccc(CNc2nc[nH]n2)c(OC)c1OC [CBK288129]	104.615
O=C(CS(=O)(=O)c1ccccc1)Nc1cnc(-c2ccc(F)cc2)c(-c2ccoc2)n1 [CBK037168]	116.969
CCc1cccc(C)c1NC(=O)CN(c1cccc(Cl)c1Cl)S(=O)(=O)c1ccc(C)cc1 [CBK268666]	104.914
Cc1ccc(S(=O)(=O)Nc2sccc2C(=O)O)cc1[N+](=O)[O-] [CBK042258]	96.3507
CCCCCC(=O)N[C@H]1CCC[C@H]1C(=O)O [CBK007807]	89.0036
CN(C)c1nc(N(C)C)nc(N(C#N)S(=O)(=O)c2ccccc2Cl)n1 [CBK269036]	88.4581
